Laboratory results from the CheMixHub viscosity set.
This continues a long series; more values of the same kind are listed elsewhere.

Experiment: xn = mol fraction of the nth substance listed
Conditions: 101 kPa

CC(C)CCO + c1ccccc1
Conditions	viscosity [mPa·s]
293.15 K, x1 = 0.00621	0.645
293.15 K, x1 = 0.01197	0.6446
293.15 K, x1 = 0.01732	0.6443
293.15 K, x1 = 0.02484	0.6445
293.15 K, x1 = 0.03869	0.6473
293.15 K, x1 = 0.0496	0.6505
293.15 K, x1 = 0.05643	0.6533
293.15 K, x1 = 0.06199	0.655
293.15 K, x1 = 0.08846	0.6673
293.15 K, x1 = 0.1319	0.6935
293.15 K, x1 = 0.1854	0.7321
293.15 K, x1 = 0.2141	0.7572
293.15 K, x1 = 0.2419	0.7833
293.15 K, x1 = 0.3032	0.855
293.15 K, x1 = 0.4012	1.006
293.15 K, x1 = 0.4599	1.115
293.15 K, x1 = 0.6381	1.661
293.15 K, x1 = 0.7821	2.438
293.15 K, x1 = 0.8	2.03
293.15 K, x1 = 0.85	2.345
293.15 K, x1 = 0.8897	3.245
293.15 K, x1 = 0.9	2.775
293.15 K, x1 = 0.95	3.399
298.15 K, x1 = 0.8	1.838
298.15 K, x1 = 0.85	2.11
298.15 K, x1 = 0.9	2.476
298.15 K, x1 = 0.95	2.995
303.15 K, x1 = 0.75	1.486
303.15 K, x1 = 0.8	1.67
303.15 K, x1 = 0.85	1.905
303.15 K, x1 = 0.9	2.217
303.15 K, x1 = 0.95	2.651
308.15 K, x1 = 0.75	1.359
308.15 K, x1 = 0.8	1.52
308.15 K, x1 = 0.85	1.723
308.15 K, x1 = 0.9	1.99
308.15 K, x1 = 0.95	2.354
313.15 K, x1 = 0.75	1.246
313.15 K, x1 = 0.8	1.386
313.15 K, x1 = 0.85	1.563
313.15 K, x1 = 0.9	1.791
313.15 K, x1 = 0.95	2.097
318.15 K, x1 = 0.75	1.144
318.15 K, x1 = 0.8	1.267
318.15 K, x1 = 0.85	1.421
318.15 K, x1 = 0.9	1.616
318.15 K, x1 = 0.95	1.874
323.15 K, x1 = 0.75	1.052
323.15 K, x1 = 0.8	1.161
323.15 K, x1 = 0.85	1.294
323.15 K, x1 = 0.9	1.462
323.15 K, x1 = 0.95	1.68
